# Measured values as given in PubChem BioAssay (Tox21).
# Where “and” joins values, the source holds several entries; their conditions need not be identical. Identical values can stand only once. Calls of active or inactive are those of the source. Unless noted, calls follow the shape of the dose curve; as a rule, active = well fitted curve in the direction sought with a large enough effect in the repeat runs; inconclusive = weak or mixed curves; inactive = no such curve, though single readings can be large; an effect the other way counts as inactive or inconclusive.
# Experiments:
# [1] = qHTS assay to identify small molecule antagonists of the glucocorticoid receptor (GR) signaling pathway - cell viability counter screen (AID 720693); details: GR-bla HeLa viability, CellTiter-Glo luminescence, 18 h, with 5 nM dexamethasone present; viability change, negative = cytotoxic: at 58.5 µM (top of the series) unless noted; also: nearly all actives have a fitted effect of over 55% in size
# [2] = qHTS assay for identifying genotoxic compounds that show differential cytotoxicity against isogenic chicken DT40 cell lines with known DNA damage response pathways - Rev3 mutant cell line (AID 743014); details: chicken DT40 Rev3-/- viability, CellTiter-Glo, 40 h; activity, negative = cytotoxicity: at 68.4 µM (top of the series); also: nearly all actives have a fitted effect of over 55% in size; as to activity, negative = cytotoxicity: % is scaled to controls: 0 for no effect and ±100 for the full control effect
# [3] = qHTS assay for identifying genotoxic compounds that show differential cytotoxicity against isogenic chicken DT40 cell lines with known DNA damage response pathways - Rad54/Ku70 mutant cell line (AID 743015); details: DT40 Rad54/Ku70 mutant viability, CellTiter-Glo, 40 h; activity change, negative = cytotoxicity: at 66.8 µM (top of the series); also: nearly all actives have a fitted effect of over 60% in size
# [4] = qHTS assay to identify small molecule antagonists of the androgen receptor (AR) signaling pathway - cell viability counter screen (AID 743033; also: nearly all actives have a fitted effect of over 45% in size); details: AR-bla HEK293 viability, CellTiter-Glo luminescence, 16 h; activity change, negative = cytotoxicity: at 58.5 µM (top of the series) unless noted
# [5] = qHTS assay to identify small molecule antagonists of the androgen receptor (AR) signaling pathway using the MDA cell line - cell viability counter screen (AID 743041; also: nearly all actives have a fitted effect of over 45% in size; as to viability change, negative = cytotoxic: % is scaled to controls: 0 for no effect and ±100 for the full control effect); details: MDA-kb2 viability, CellTiter-Fluor, 16 h, cells co-treated with R1881 androgen agonist; viability change, negative = cytotoxic: at 70.3 µM (top of the series) unless noted
# Procedure, shortened: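 Viability counter screen run alongside the AR antagonist reporter: cells seeded 5 h before compound, R1881 added, 16 h incubation at 37C without CO2, fluorescent CellTiter-Fluor signal quantified.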
# [6] = qHTS assay to identify small molecule antagonists of the thyroid receptor (TR) signaling pathway - cell viability counter screen (AID 743064); details: GH3.TRE-Luc viability, CellTiter-Fluor, 24 h; activity change, negative = cytotoxic: at 70.3 µM (top of the series) unless noted; also: nearly all actives have a fitted effect of over 50% in size; as to activity change, negative = cytotoxic: % is scaled to controls: 0 for no effect and ±100 for the full control effect
# Procedure, shortened: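 Plate GH3.TRE-Luc cells; incubate 4 h at 37 °C; add compound, then T3 to 1 nM final; incubate 23.5 h; add CellTiter-Fluor; incubate 30 min at 37 °C, 5% CO2; read fluorescence.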
# [7] = test system: thyroid hormone receptor (rat, GH3 cells); experiment: qHTS assay to identify small molecule agonists of the thyroid receptor (TR) signaling pathway (AID 743066; calls by dose curve; as to activation: % is scaled to controls: 0 for no effect and ±100 for the full control effect); details: GH3.TRE-Luc cells, TR agonist luciferase, 24 h; activation: at 83.9 µM (top of the series) unless noted
# [8] = biological target: Estrogen receptor (Homo sapiens) (UniProt P03372); experiment: qHTS assay to identify small molecule antagonists of the estrogen receptor alpha (ER-alpha) signaling pathway (AID 743069; active = well fitted curve in the direction sought with a large enough effect in the signal ratio in the repeat runs, not every such curve was filed as active; inconclusive = weak or mixed curves, or effect the other way; inactive = no such curve, though single readings can be large or run the other way; the % refers to the signal ratio); details: HEK293 ER-alpha-UAS-bla, beta-lactamase ratio, antagonist mode; activity, negative = inhibition: at 69.4 µM (top of the series) unless noted
# UniProt P03372, sequence (P03372 whole entry, looked up): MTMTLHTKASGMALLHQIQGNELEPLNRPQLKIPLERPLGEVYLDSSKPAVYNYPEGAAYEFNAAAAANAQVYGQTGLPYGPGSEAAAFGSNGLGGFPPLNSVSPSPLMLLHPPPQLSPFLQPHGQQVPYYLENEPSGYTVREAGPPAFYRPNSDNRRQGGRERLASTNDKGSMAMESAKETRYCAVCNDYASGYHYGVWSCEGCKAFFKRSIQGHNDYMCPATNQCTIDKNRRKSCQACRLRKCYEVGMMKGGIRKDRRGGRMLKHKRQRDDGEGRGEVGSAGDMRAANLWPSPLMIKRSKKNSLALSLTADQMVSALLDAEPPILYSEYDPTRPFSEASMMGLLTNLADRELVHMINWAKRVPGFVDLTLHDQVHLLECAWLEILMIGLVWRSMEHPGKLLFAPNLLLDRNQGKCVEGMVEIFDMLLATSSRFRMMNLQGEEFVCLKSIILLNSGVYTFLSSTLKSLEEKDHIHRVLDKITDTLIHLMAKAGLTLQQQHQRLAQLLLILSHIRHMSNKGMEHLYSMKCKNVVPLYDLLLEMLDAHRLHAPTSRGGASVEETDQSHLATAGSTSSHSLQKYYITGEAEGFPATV
# Procedure, shortened: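 Estradiol-stimulated ER-alpha-UAS-bla HEK293 cells, 18 hr compound exposure at 37C. LiveBLAzer B/G substrate, 2 hr RT, fluorescence read.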
# [9] = qHTS assay to identify small molecule antagonists of the estrogen receptor alpha (ER-alpha) signaling pathway using the BG1 cell line - cell viability counter screen (AID 743081); details: BG1Luc4E2 viability, CellTiter-Fluor, 22 h; activity change, negative = cytotoxicity: at 70.3 µM (top of the series) unless noted;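 also: compound given together with 17beta-estradiol as the ER stimulus; nearly all actives have a fitted effect of over 45% in size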
# [10] = biological target: Androgen receptor (Homo sapiens) (UniProt P10275); experiment: qHTS assay to identify small molecule antagonists of the androgen receptor (AR) signaling pathway (AID 743035; active = well fitted inhibition curve with a large enough effect in the signal ratio in the repeat runs, not every such curve was filed as active; inconclusive = weak or mixed curves, or effect the other way; inactive = no such curve, though single readings can be large or run the other way; the % refers to the signal ratio); details: HEK293 AR-UAS-bla, R1881-stimulated, beta-lactamase FRET, 16 h; activity change, negative = inhibition: at 58.5 µM (top of the series) unless noted
# UniProt P10275, sequence (P10275 whole entry, looked up): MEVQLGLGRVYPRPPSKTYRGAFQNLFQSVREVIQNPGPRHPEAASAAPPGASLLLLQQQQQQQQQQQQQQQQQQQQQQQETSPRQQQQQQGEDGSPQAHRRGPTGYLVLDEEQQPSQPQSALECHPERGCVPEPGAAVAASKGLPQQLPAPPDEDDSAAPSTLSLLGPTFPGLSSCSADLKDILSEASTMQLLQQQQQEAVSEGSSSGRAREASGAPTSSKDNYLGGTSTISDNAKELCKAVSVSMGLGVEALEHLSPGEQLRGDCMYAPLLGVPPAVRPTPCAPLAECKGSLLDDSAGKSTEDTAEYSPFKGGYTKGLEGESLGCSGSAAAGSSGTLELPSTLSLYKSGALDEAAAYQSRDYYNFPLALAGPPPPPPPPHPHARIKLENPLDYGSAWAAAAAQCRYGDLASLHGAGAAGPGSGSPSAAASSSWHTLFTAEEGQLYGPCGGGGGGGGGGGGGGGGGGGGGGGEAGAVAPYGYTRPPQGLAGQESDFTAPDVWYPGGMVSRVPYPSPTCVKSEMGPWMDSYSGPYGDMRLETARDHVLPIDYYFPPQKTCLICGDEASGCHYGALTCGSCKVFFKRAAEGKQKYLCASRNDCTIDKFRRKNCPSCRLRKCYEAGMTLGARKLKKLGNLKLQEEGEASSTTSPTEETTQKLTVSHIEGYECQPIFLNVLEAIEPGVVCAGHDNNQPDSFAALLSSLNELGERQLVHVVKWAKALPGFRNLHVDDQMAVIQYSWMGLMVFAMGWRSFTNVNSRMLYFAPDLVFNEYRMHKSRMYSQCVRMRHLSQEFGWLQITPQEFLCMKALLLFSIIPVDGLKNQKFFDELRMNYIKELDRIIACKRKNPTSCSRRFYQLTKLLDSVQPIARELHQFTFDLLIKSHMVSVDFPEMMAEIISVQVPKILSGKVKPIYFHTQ
# Procedure, shortened: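 Beta-lactamase FRET read (2 h RT incubation with LiveBLAzer B/G) following 16 h of compound plus R1881 treatment of AR-UAS-bla HEK293 cells, which had been pre-incubated 4 h at 37C.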
# [11] = biological target: Androgen receptor (Homo sapiens) (UniProt P10275); experiment: qHTS assay to identify small molecule agonists of the androgen receptor (AR) signaling pathway (AID 743036; active = well fitted activation curve with a large enough effect in the signal ratio in the repeat runs, with a control signal flat, not every such curve was filed as active; inconclusive = weak or mixed curves, or effect the other way; inactive = no such curve, though single readings can be large or run the other way; the % refers to the signal ratio); details: HEK293 AR-UAS-bla GripTite, beta-lactamase FRET ratio, 16 h; activation: at 62.4 µM (top of the series) unless noted
# Procedure, shortened: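 Reporter line: GeneBLAzer AR-UAS-bla-GripTite (HEK293). Steps: plate cells, 4 h rest, add compounds, 16 h at 37C, add LiveBLAzer B/G substrate, 2 h at RT, read fluorescence.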
# [12] = qHTS assay to identify small molecule antagonists of the estrogen receptor alpha (ER-alpha) signaling pathway - cell viability counter screen (AID 743074; calls by dose curve;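 also: HEK293 cells carrying ER-alpha-UAS-bla reporter stimulated with 17beta-estradiol; nearly all actives have a fitted effect of over 45% in size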)
# [13] = biological target: Estrogen receptor (Homo sapiens) (UniProt P03372); experiment: qHTS assay to identify small molecule agonists of the estrogen receptor alpha (ER-alpha) signaling pathway using the BG1 cell line (AID 743079); details: BG1Luc4E2 cells, ERE-luciferase agonist, 22 h; activation: at 70.3 µM (top of the series) unless noted; also: nearly all actives have a fitted effect of over 20% in size
# [14] = qHTS assay to identify small molecule antagonists of the estrogen receptor alpha (ER-alpha) signaling pathway using the BG1 cell line (AID 743080; calls by dose curve;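 also: BG1 cells stimulated with 17beta-estradiol alongside compound; nearly all actives have a fitted effect of over 25% in size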); details: BG1Luc4E2 ERE-luciferase antagonist mode, luminescence; activity change, negative = inhibition: at 70.3 µM (top of the series) unless noted
# Procedure, shortened: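 BG1Luc4E2, endogenous ER-alpha, 4xERE-luc; 5 d charcoal-stripped FBS, phenol red free; 24 h plating; cpd + 17beta-estradiol 21.5 h, 37 C/5% CO2; CellTiter-Fluor viability 30 min, then ONE-Glo luciferase 30 min RT.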
# [15] = qHTS assay for identifying genotoxic compounds that show differential cytotoxicity against isogenic chicken DT40 cell lines with known DNA damage response pathways - wild type cell line (AID 743012); details: DT40 wild type chicken cells viability, CellTiter-Glo, 40 h; activity change, negative = cytotoxicity: at 68.4 µM (top of the series) unless noted; also: nearly all actives have a fitted effect of over 60% in size
# Procedure, shortened: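 First, wild type DT40 cells were plated at 300 per well and equilibrated about 0.5 h at 37 C/5% CO2. Next, compounds in DMSO were added and exposure lasted 40 h. Finally, CellTiter-Glo was added for 30 min at room temperature and luminescence recorded.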
# [16] = biological target: Estrogen receptor (Homo sapiens) (UniProt P03372); experiment: qHTS assay to identify small molecule agonists of the estrogen receptor alpha (ER-alpha) signaling pathway (AID 743075; calls by dose curve;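 also: HEK293 GripTite cells with ER-alpha and UAS-driven beta-lactamase reporter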)
# Aromatase (Homo sapiens) = Aromatase (Homo sapiens) (UniProt P11511); experiment: qHTS assay to identify aromatase inhibitors (AID 743083); details: MCF-7 aro ERE, testosterone-driven ERE luciferase, 24 h; activity, negative = inhibition: at 70.3 µM (top of the series); also: nearly all actives have a fitted effect of over 55% in size
# UniProt P11511, sequence (P11511 whole entry, looked up): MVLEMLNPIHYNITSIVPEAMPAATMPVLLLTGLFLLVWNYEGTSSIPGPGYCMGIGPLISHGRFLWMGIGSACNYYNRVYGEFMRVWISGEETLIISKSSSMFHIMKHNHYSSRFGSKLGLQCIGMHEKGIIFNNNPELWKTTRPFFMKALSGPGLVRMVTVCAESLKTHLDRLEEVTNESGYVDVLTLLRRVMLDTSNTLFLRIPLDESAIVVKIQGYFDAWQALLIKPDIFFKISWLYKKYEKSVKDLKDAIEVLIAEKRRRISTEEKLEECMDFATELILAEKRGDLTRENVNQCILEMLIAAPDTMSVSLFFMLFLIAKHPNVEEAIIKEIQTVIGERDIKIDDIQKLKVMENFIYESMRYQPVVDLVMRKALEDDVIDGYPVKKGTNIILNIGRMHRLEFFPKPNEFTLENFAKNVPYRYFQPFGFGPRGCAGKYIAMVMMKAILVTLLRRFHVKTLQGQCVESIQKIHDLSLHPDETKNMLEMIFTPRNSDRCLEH
# [17] = qHTS assay to identify small molecule antagonists of the thyroid receptor (TR) signaling pathway (AID 743065); also: nearly all actives have a fitted effect of over 55% in size
# Procedure, shortened: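 GH3.TRE-Luc rat pituitary cells carrying two TR response elements driving luciferase were plated for 4 h, given compound plus 1 nM T3 (final), and incubated 23.5 h at 37 C. ONE-Glo luminescence measured reporter inhibition; CellTiter-Fluor fluorescence tracked cytotoxicity.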
# Potency is read from the fitted curve at half-maximal effect; tags tell the direction and shape of the fitted curve or compound fluorescence and quenching.
smiles,measurement,setting,value
C#C[C@]1(O)CC[C@H]2[C@@H]3CCc4cc(O)ccc4[C@H]3CC[C@@]21C,Potency,[1],"inconclusive: 7.56 µM [cytotoxic, full curve] and inconclusive: 3.44 µM [cytotoxic, full curve] and inconclusive: 6.16 µM [cytotoxic, full curve]"
same,Potency,[2],"active: 18.8 µM and active: 27.1 µM and inconclusive: 19.3 µM [cytotoxic, partial curve, poor fit]"
same,Potency,[3],"inconclusive: 15.4 µM [cytotoxic, full curve, poor fit]"
same,Potency,[4],"inconclusive: 19.4 µM [cytotoxic, partial curve] and inconclusive: 21.9 µM [cytotoxic, partial curve, poor fit]"
same,Potency,[5],"inconclusive: 76.4 µM [cytotoxic, single point]"
same,Potency,[6],"inconclusive: 11.9 µM [cytotoxic, partial curve] and inconclusive: 13.6 µM [cytotoxic, full curve] and inconclusive: 15.4 µM [cytotoxic, full curve]"
same,activation,[7],inconclusive: -7.63% [phenotype inactive]
Cc1[nH]c(=O)c(C#N)cc1-c1ccncc1,Potency,[1],"inconclusive: 0.239 µM [rising, full curve, poor fit]"
same,Potency,[2],inactive
same,Potency,[3],inconclusive: 68.6 µM
same,"viability change, negative = cytotoxic",[5],inconclusive: 30.2%
same,Potency,[8],"inconclusive: 4.9 µM [activator, full curve]"
same,Potency,[9],"inconclusive: 68.6 µM [rising, partial curve, poor fit]"
O=C(c1ccc(F)cc1)C1CCN(CCn2c(=S)[nH]c3ccccc3c2=O)CC1,Potency,[1],"inconclusive: 0.239 µM [rising, single point]"
same,Potency,[2],"inconclusive: 33.5 µM [cytotoxic, single point]"
same,Potency,[10],inconclusive: 26.8 µM
same,Potency,[11],inconclusive: 10.7 µM
same,Potency,[6],inactive
CN1CCC(=C2c3ccccc3C=Cc3ccccc32)CC1,Potency,[1],"inconclusive: 26.8 µM [cytotoxic, single point]"
same,Potency,[3],active: 13.3 µM
same,Potency,[5],"inconclusive: 31.2 µM [cytotoxic, single point]"
same,Potency,[6],active: 15 µM
same,Potency,[7],inactive
same,Potency,[12],"inconclusive: 26.8 µM [cytotoxic, single point]"
same,Potency,[13],inactive
same,"activity change, negative = inhibition",[14],inconclusive: 4.53%
CC(CCC(=O)O)(c1ccc(O)cc1)c1ccc(O)cc1,Potency,[1],"inconclusive: 0.138 µM [rising, full curve, poor fit]"
same,Potency,[15],inconclusive: 69.4 µM [single point]
same,Potency,[6],"inconclusive: 0.551 µM [rising, single point]"
same,Potency,[16],"inconclusive: 55.6 µM [activator, partial curve, poor fit]"
same,Potency,[13],"inconclusive: 61.8 µM [activator, partial curve] and active: 61.1 µM"
O=C1Nc2ccc(Cl)cc2[C@@](C#CC2CC2)(C(F)(F)F)O1,Potency,[1],"inconclusive: 23.9 µM [cytotoxic, single point]"
same,Potency,[2],active: 26.6 µM
same,Potency,[4],"inconclusive: 26.8 µM [cytotoxic, single point]"
same,Potency,[6],active: 29.8 µM
same,Potency,[8],inconclusive: 26.8 µM [single point]
same,Potency,[13],"inconclusive: 33.5 µM [inhibitor, single point]"
same,Potency,[14],active: 33.5 µM
same,Potency,[9],inactive
same,Potency,Aromatase (Homo sapiens),active: 23.7 µM
Cc1cc(C)c(/C=C2\C(=O)Nc3ccccc32)[nH]1,Potency,[1],"inconclusive: 8.49 µM [cytotoxic, partial curve]"
same,Potency,[2],"inconclusive: 29.8 µM [cytotoxic, partial curve]"
same,Potency,[3],"inconclusive: 37.6 µM [cytotoxic, partial curve, poor fit]"
same,Potency,[10],inactive
same,Potency,[11],"inconclusive: 26.8 µM [rising, partial curve]"
same,Potency,[6],"inconclusive: 26.6 µM [rising, partial curve]"
same,Potency,[17],"inconclusive: 10.6 µM [inhibitor, full curve]"
same,Potency,[8],active: 26.8 µM [inconclusive]
same,Potency,[16],inconclusive: 26.8 µM
same,Potency,[13],inactive
same,Potency,[14],"inconclusive: 0.266 µM [falling, full curve]"
same,Potency,[9],"inconclusive: 11.9 µM [cytotoxic, partial curve]"
O=C1CCCCC1C1CCCCC1 (stereo unspecified),Potency,[1],inactive
same,Potency,[2],inactive
same,Potency,[6],"inconclusive: 54.5 µM [rising, partial curve, poor fit]"
same,Potency,[9],inactive
COC(=O)C1=C(C)NC(COC(N)=O)=C(C(=O)OC(C)C)C1c1cccc(Cl)c1Cl (stereo unspecified),Potency,[1],"inconclusive: 23.9 µM [cytotoxic, single point]"
same,Potency,[2],"inconclusive: 33.5 µM [cytotoxic, single point]"
same,Potency,[3],active: 23.7 µM
same,"activity change, negative = inhibition",[10],inconclusive: -49.6%
same,Potency,[11],active: 10.7 µM
same,Potency,[17],active: 16.8 µM
same,Potency,[7],inconclusive: 11.9 µM [inhibitor]
same,Potency,[8],"inconclusive: 10.7 µM [fluorescent, partial curve]"
same,Potency,[16],"inconclusive: 8.49 µM [fluorescent, full curve, poor fit]"
same,Potency,[9],"inconclusive: 0.335 µM [rising, full curve, poor fit]"
